Data: PubChem BioAssay AID651820 (National Center for Advancing Translational Sciences (NCATS), 2012)
Values joined by “and” are separate entries in the source; they are usually repeats but may differ in a detail not shown here. Identical values can stand only once. In all, about 340,000 compounds went through this assay and about 12,000 (3.5%) were called active. Inconclusive means that the source gave no clear call. Such entries were picked first, then a sample of the others. The call rests on the fitted dose curve; in most records, active means well fitted inhibition curve with a large enough effect; inconclusive means small, poorly fitted or top-dose-only effect, or another doubt; inactive means no such curve, though single readings can be large or run the other way. A potency beside an inconclusive call is a rough fit, not a confirmed value.

test: qHTS Assay for Inhibitors of Hepatitis C Virus (HCV); conditions: Huh7.5.1 HCVcc-Cre (HCVcc is cell-culture hepatitis C virus) infection, luciferase reporter, 44 h; activity change, negative = inhibition: at 41.8 µM (top of the series) unless noted
In short: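 Infectious HCV cell culture screen: compound-treated cells (1,000/well, pre-plated 4 h) are infected with HCVcc-Cre at roughly 0.5 moi and grown 44 h. Infection is quantified by luciferase signal after 15 min substrate incubation at room temperature.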
On the % scale 0 is the no-effect control and ±100 the full control effect; potency means the concentration at half of the fitted maximal effect; tags describe the fitted curve by direction and shape.

Compound | Potency | activity change, negative = inhibition
O=C(CCNC(=O)c1ccc(Cl)cc1)Nc1cccc(S(=O)(=O)N2CCCCC2)c1 | inactive | –
O=C(NC(=S)Nc1ccccc1OC(F)F)c1ccc2c(c1)OCO2 | inconclusive: 2.82 µM [inhibitor, single point] | –
O=C(CN1C(=O)NC2(CCc3ccccc32)C1=O)Nc1cc(C(F)(F)F)ccc1N1CCOCC1 (stereo unspecified) | inconclusive: 11.2 µM [inhibitor, single point] | –
Cc1ccccc1OCC(=O)NNC(=O)C1CCN(c2ncnc3sc(C)c(C)c23)CC1 | inconclusive: 10 µM [inhibitor, partial curve] | –
O=S(=O)(NCc1cccnc1)c1cccn1-c1ncc(C(F)(F)F)cc1Cl | inconclusive: 22.4 µM [inhibitor, single point] | –
Cn1cc(CN2CCCC(C(=O)c3cccs3)C2)c(-c2cccc(Cl)c2)n1 (stereo unspecified) | inconclusive: 12.6 µM [inhibitor, single point] | –
CCOC(=O)c1[nH]c2cc(OC)c(OC)cc2c1NC(=O)CN(C)C1CCCCC1 | inconclusive: 5.62 µM [inhibitor, partial curve] | –
CCN(CC)S(=O)(=O)c1ccc(N2CCCC2)c(NC(=O)c2ccc([N+](=O)[O-])o2)c1 | active: 10 µM | –
Cc1onc(-c2c(Cl)cccc2Cl)c1C(=O)Nc1nccs1 | inactive | –
O=C(CN1C(=O)c2cccc3cccc1c23)N1CCc2ccccc2C1 | inconclusive: 10 µM [inhibitor, partial curve] | –
Cc1cccc2c1-c1sc(C(=O)Nc3cccc([N+](=O)[O-])c3C)cc1CO2 | inconclusive: 5.62 µM [inhibitor, partial curve] | –
CCOC(=O)c1c(NC(=O)CCC(=O)O)sc2c1CC(C)(C)OC2 | inactive | –
O=C(Nc1ccc(Cl)cc1)Nc1nc(-c2ccccc2O)cs1 | inconclusive: 8.91 µM [inhibitor, partial curve] | –
Cc1cccc(NC(=O)C2CCCN(S(=O)(=O)c3ccc4[nH]c(=O)ccc4c3)C2)c1 (stereo unspecified) | inactive | –
CC(=O)c1cn(CCOc2cc(C)ccc2C)c2ccccc12 | active: 1.78 µM | –
Nc1nc(SCC(=O)OCc2ccccc2)[nH]c(=O)c1NC(=O)c1ccco1 | inactive | –
Clc1ccc(CN2CCCCCCC2)cc1Cl | inactive | –
COc1ccc(CCNC2CCCCC2)cc1OC | inconclusive: 4.47 µM [inhibitor, partial curve] | –
COc1cc(Cl)c(C)cc1NC(=O)[C@@H]1CCCN1C(=O)c1cccs1 | inconclusive: 11.2 µM [inhibitor, partial curve] | –
CCN(CC)c1nc(C(N)=O)cc(-c2ccccc2)n1 | inconclusive: 35.5 µM [inhibitor, partial curve, poor fit] | –
O=C(COC(=O)C1(c2cccc(F)c2)CCCC1)NCc1cccs1 | inconclusive: 22.4 µM [inhibitor, single point] | –
CC(OC(=O)c1c2c(nc3ccccc13)/C(=C\c1ccc3c(c1)OCO3)CCC2)C(=O)Nc1ccc(S(N)(=O)=O)cc1 (stereo unspecified) | inconclusive: 11.2 µM [inhibitor, single point] and inconclusive: 22.4 µM [inhibitor, single point] | –

Compound | Potency | activity change, negative = inhibition
CC1(C)CC(=O)c2c(O)cc(OCC(=O)N3CCN(c4ccc(F)cc4)CC3)cc2O1 | inconclusive: 1.58 µM [inhibitor, partial curve] | –
Cc1cc(NC(=O)CCC(=O)N(Cc2ccco2)C2(C(=O)NC3CCCCC3)CCCCC2)no1 | inconclusive: 31.6 µM [inhibitor, single point] | –
CCOC(=O)N1CCN(C(=O)c2cc3c(-c4ccc(Cl)cc4)nn(C)c3s2)CC1 | inactive | –
CC(=O)Nc1c(I)c(NC(C)=O)c(I)c(C(=O)O)c1I | inconclusive: 3.55 µM [inhibitor, partial curve] | –
COc1ccccc1CNC(=O)COC(=O)c1ccc(Cl)c(N)c1 | inactive | –
CC(C)(C)C(=O)N1CCN(S(=O)(=O)c2ccc3c(c2)OCCCO3)CC1 | inconclusive: 31.6 µM [inhibitor, single point] | –
Cc1ccc(NC(=O)c2ccccc2NS(=O)(=O)c2ccc(Cl)s2)cc1S(=O)(=O)N1CCOCC1 | inconclusive: 31.6 µM [inhibitor, single point] | –
Fc1ccc(-n2c(Cc3ccccc3)nnc2SCc2nc(-c3ccc(Cl)cc3)no2)cc1 | inconclusive: 14.1 µM [inhibitor, single point] | –
CCOc1ccc(C(C)=O)cc1COC(=O)c1cnc(Cl)c(Cl)c1 | inconclusive: 14.1 µM [inhibitor, single point] | –
C=CCn1c(SCC(=O)c2ccc(O)c(O)c2)nnc1-c1ccccc1OC | inconclusive: 35.5 µM [inhibitor, single point] | –
Fc1cnc(N2CCOCC2)nc1N1CCc2ccccc21 | inconclusive: 22.4 µM [inhibitor, single point] | –
O=c1[nH]c(=O)n(Cc2ccccc2)c(O)c1/C=C1\C=Nc2ccccc21 | inactive | –
COc1ccc(OC2C(=O)N(Cc3ccc4c(c3)OCO4)C2c2sccc2C)cc1 (stereo unspecified) | inconclusive: 31.6 µM [inhibitor, single point] | –
CCCCc1nn(-c2cc(Cl)ccc2OC)c2c1C(=O)CC(C)(C)C2 | inconclusive: 12.6 µM [inhibitor, single point] | –
COc1ccc(-c2cnn3c4c(c(C)nc23)CCN4C(C)C)cc1OC | inconclusive: 1.12 µM [inhibitor, full curve, poor fit] | –
O=C(NCc1ccc(Cl)cc1)c1ccc(-c2ccccc2C(F)(F)F)o1 | – | inactive: -3.66% [at 8.37 µM]
CCN(CC(=O)Nc1ccccc1C(F)(F)F)C(=O)CCS(=O)(=O)c1ccc(Cl)cc1 | inactive | –
COc1ccc(/C=N/NC(=O)c2cccc([N+](=O)[O-])c2)cc1O | inactive | –
Cc1nn(-c2ccccc2)nc1CNC(=O)C1CCC1 | inactive | –
CCCSc1nnc(CSc2nc(C)cc(C)n2)n1C | inactive | –
COc1ccc(/C=N/NC(=O)c2ccc(N)cc2)cc1Cn1cc([N+](=O)[O-])cn1 | inconclusive: 31.6 µM [inhibitor, single point] | –
COc1ccc(-c2ccc3ccccc3n2)cc1OC | inconclusive: 31.6 µM [inhibitor, single point] | –

Compound | Potency | activity change, negative = inhibition
CCCc1nc(SC2CCCC2)c2c(=O)n(C)c(=O)n(C)c2n1 | inconclusive: 3.55 µM [inhibitor, full curve, poor fit] | –
Fc1cc(Br)cc(F)c1NC(=S)N1CCOCC1 | inconclusive: 3.98 µM [inhibitor, single point] | –
CCCn1cc(CN2CCCC(C(=O)c3cccc(OC(C)C)c3)C2)c(C)n1 (stereo unspecified) | inconclusive: 14.1 µM [inhibitor, single point] | –
O=C(CCN1C(=O)c2ccccc2S1(=O)=O)N1CCN(c2cccc(Cl)c2)CC1 | inactive | –
CN(C)c1cccc(C(=O)Nc2nnc(Cc3ccccc3)s2)c1 | inconclusive: 31.6 µM [inhibitor, single point] | –
O=C(NCc1ccccn1)c1cccc(S(=O)(=O)N2CCc3ccccc32)c1 | inconclusive: 31.6 µM [inhibitor, single point] | –
COCCn1c(=O)[nH]c2cc(C(=O)N3CCN(c4cccc(C(F)(F)F)c4)CC3)ccc2c1=O | inconclusive: 25.1 µM [inhibitor, single point] | –
Cc1ccc(S(=O)(=O)N2CCOCC2)cc1NC(=O)COc1cccc(Oc2ccccc2)c1 | inconclusive: 8.91 µM [inhibitor, partial curve] | –
CCc1ccc(N2C(=O)NC(=O)/C(=C\c3cccn3CCOc3ccc(C(C)C)cc3)C2=O)cc1 | inactive | –
CC(C)(C)c1ccc(C(=O)NC(=S)NNC(=O)c2cccs2)cc1 | inconclusive: 8.91 µM [inhibitor, partial curve] | –
O=C(CC(C(=O)O)P(=O)(c1ccccc1)c1ccccc1)c1ccc(Br)cc1 (stereo unspecified) | inactive | –
O=C1/C(=C\c2ccc([N+](=O)[O-])cc2)CS(=O)(=O)C/C1=C/c1ccc([N+](=O)[O-])cc1 | inconclusive: 1.12 µM [inhibitor, full curve] | –
Cc1ccccc1CN1CCN(c2ccc(S(=O)(=O)N3CCCC3)cn2)CC1 | inconclusive: 31.6 µM [inhibitor, partial curve, poor fit] | –
Cc1cccc(C(=O)OC(C)C(=O)Nc2ccc(S(=O)(=O)N3CCCC3)cc2)c1O (stereo unspecified) | inconclusive: 17.8 µM [inhibitor, single point] | –
C=CCNC(=O)c1ccc2c(=O)n(Cc3ccccc3OC)c(=S)[nH]c2c1 | inconclusive: 7.94 µM [inhibitor, partial curve] | –
Cc1nn(C)c(C)c1NS(=O)(=O)c1ccc(Cl)cc1 | inconclusive: 5.62 µM [inhibitor, single point] | –
N=c1c(S(=O)(=O)c2ccc(Br)cc2)cc2c(=O)n3ccccc3nc2n1CCN1CCOCC1 | inconclusive: 10 µM [inhibitor, partial curve] | –
N#C/C(=C\c1cc2ccccc2nc1N1CCCCC1)C(N)=O | inconclusive: 31.6 µM [inhibitor, single point] | –
CCC(=Nc1ccc(OC)cc1OC)c1c(O)n(C)c(=O)n(C)c1=O | inconclusive: 0.501 µM [inhibitor, full curve, poor fit] | –
O=C(O)C1CC=CCC1C(=O)NCc1ccc(Cl)c(Cl)c1 (stereo unspecified) | inactive | –
O=C(Nc1nc(-c2cccs2)cs1)c1ccc(Cl)cc1 | inconclusive: 22.4 µM [inhibitor, single point] | –
c1ccc(Nc2nc(NCCN3CCOCC3)nc(Nc3ccccc3)n2)cc1 | inconclusive: 31.6 µM [inhibitor, single point] | –
